Out of some 110,000 compounds screened, about 230 (0.21%) showed an effect of 50% or more. Some of the results follow.
molecular target: DPAP1 (Plasmodium falciparum, UniProt Q8IIJ9); experiment: primary screen, percent inhibition; read by cleavage of a fluorogenic dipeptide substrate; higher = more effect of the substance; parameters: species or system P. falciparum D10 trophozoite lysates; single well
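Further: 30 min substrate incubation versus DMSO and 10 µM JCP410 controls.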

Chain of DPAP1 (Q8IIJ9 whole entry, looked up): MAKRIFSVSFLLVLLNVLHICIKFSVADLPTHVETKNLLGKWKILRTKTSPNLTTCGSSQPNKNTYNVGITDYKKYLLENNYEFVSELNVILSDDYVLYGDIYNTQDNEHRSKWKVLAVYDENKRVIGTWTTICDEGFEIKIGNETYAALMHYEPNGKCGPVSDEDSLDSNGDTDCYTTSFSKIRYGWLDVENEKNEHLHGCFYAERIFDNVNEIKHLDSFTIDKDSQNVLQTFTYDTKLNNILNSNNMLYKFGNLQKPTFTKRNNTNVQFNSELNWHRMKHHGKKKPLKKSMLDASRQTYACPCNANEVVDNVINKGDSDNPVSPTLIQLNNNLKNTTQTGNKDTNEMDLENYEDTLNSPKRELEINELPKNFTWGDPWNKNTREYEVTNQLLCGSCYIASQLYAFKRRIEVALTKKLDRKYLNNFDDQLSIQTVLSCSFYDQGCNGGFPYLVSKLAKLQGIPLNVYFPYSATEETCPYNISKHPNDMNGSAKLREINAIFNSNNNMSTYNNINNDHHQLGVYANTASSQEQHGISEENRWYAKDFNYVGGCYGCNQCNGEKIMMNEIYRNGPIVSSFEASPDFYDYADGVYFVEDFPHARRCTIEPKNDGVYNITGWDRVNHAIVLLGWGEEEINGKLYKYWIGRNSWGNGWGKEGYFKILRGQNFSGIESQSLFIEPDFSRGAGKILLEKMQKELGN

Going from `COc1ccc(/C=C2\Cc3ccccc3C2=O)cc1Cn1nc(C)cc1C` to `COc1ccccc1/C=C1\SC(=O)N(CCC(=O)Nc2ccccc2)C1=O`, the “% Inhibition @ 10 uM” value rises from -4.65% to 2.69%.

Compared with `Cc1ccsc1-c1ncnn1-c1sc2c(c1C#N)CCCC2`, `CCNC(=O)c1c(NC(=O)C(C)Oc2ccc(F)cc2)sc2c1CCCC2` (stereo not shown) is lower in “% Inhibition @ 10 uM” value: -1.82% for the first, -9.77% for the second.

Compared with `COc1ccc(CN2CCN(Cc3ccccc3Br)CC2)cc1OC`, `CCOc1cc(CN2CCC3(C=Cc4ccccc43)CC2)ccc1OC` is lower in “% Inhibition @ 10 uM” value: 0.0974% for the first, -3.42% for the second.

Compared with `CCC(NC(=O)c1cc(S(=O)(=O)N(C)C)c(Cl)cc1Cl)C12CC3CC(CC(C3)C1)C2` (stereo not shown), `Cc1ccc(Cl)cc1N(CC(=O)NC1CC2CCC1C2)S(=O)(=O)c1ccccc1` (stereo not shown) is lower in “% Inhibition @ 10 uM” value: -0.703% for the first, -4.13% for the second.

First: O=c1c2oc3ccccc3c2ncn1Cc1ccccc1
Second: O=C(NCc1noc2ccccc12)N1CCC(c2ccccc2)C1 (stereo not shown)
The “% Inhibition @ 10 uM” value of the first is lower: -4.18% for the first, 3.54% for the second.

Going from `Cn1c(=O)[nH]c(O)c(/C=C/c2ccc3ccccc3n2)c1=O` to `CC(C)Cn1cc(NC(=O)Nc2nc3ccccc3s2)c2ccccc2c1=O`, the “% Inhibition @ 10 uM” value falls from 3.6% to 2.09%.

First: C=C(C)c1cccc(C(C)(C)NC(=O)N2CCN(C(=O)OCC)CC2)c1
Second: CCOC(=O)N1CCC(NC(=O)c2noc3c2COc2ccc(C)cc2-3)CC1
The “% Inhibition @ 10 uM” value of the first is lower: -5.62% for the first, -5.3% for the second.

`O=C(NCc1ccc(F)cc1)c1cc(-c2ccc(O)cc2)on1` and `CCOC(=O)c1c(-c2ccccc2)csc1NC(=O)c1cc(-c2ccc(O)cc2)on1` are the same in “% Inhibition @ 10 uM” value: -2.65% for the first, -2.65% for the second.

First: Cc1ccc(N2CCN(CC(=O)Nc3ccc(Br)cc3)CC2)cc1Cl
Second: O=C(NC(=S)Nc1ccc(N2CCOCC2)cc1)c1ccccc1
The “% Inhibition @ 10 uM” value of the first is lower: -4.68% for the first, 3.05% for the second.

Compared with `COc1ccc(CNCc2cc(C)c(OC)cc2C)cc1`, `COc1cc(CNCc2cccnc2)ccc1OCc1ccc(F)cc1` is lower in “% Inhibition @ 10 uM” value: -3.32% for the first, -4.12% for the second.

First: O=C(Nc1ccc(F)cc1F)C1CC(=O)N(c2ccc(Br)cc2)C1 (stereo not shown)
Second: COc1ccccc1NC(=O)C1CC(=O)N(C)/C(=N/c2ccc(Cl)cc2)S1 (stereo not shown)
The “% Inhibition @ 10 uM” value of the first is higher: 9.01% for the first, -3.25% for the second.

Compared with `COc1ccc(-c2c(Cc3ccccc3)nn3c(O)cc(-c4ccccc4)nc23)cc1`, `Brc1ccc(C2=NN=C(c3ccccc3)c3ccccc3N2)cc1` is lower in “% Inhibition @ 10 uM” value: 3.42% for the first, -2.35% for the second.

First: COc1ccc(/C=C\C(=O)NCC(=O)O)cc1
Second: CCc1sc(N)[n+](C)c1-c1ccc(OC)cc1
The “% Inhibition @ 10 uM” value of the first is higher: -2.72% for the first, -3.45% for the second.

Going from `CC(C)(C)c1cc(-c2nc3ccccc3[nH]2)[nH]n1` to `Cc1nc(C(Cl)(Cl)Cl)nc(N)c1C(=O)c1ccccc1`, the “% Inhibition @ 10 uM” value falls from 4.6% to -1.82%.

First: CC(=O)NS(=O)(=O)c1ccc(N2C(=O)c3ccccc3C2=O)cc1
Second: COc1ccc(N2C(=O)S/C(=C3\C(=O)Nc4ccccc43)C2=O)cc1
The “% Inhibition @ 10 uM” value of the first is higher: 0.331% for the first, -4.18% for the second.

Compared with `Cc1ccc2c(c1)/C(=C1/SC(Nc3ccc(Cl)cc3)=NC1=O)C(=O)N2C`, `Cc1ccc(-n2nc3c(c2NC(=O)c2ccc(Cl)cc2Cl)CS(=O)(=O)C3)cc1` is higher in “% Inhibition @ 10 uM” value: 5.4% for the first, 10.3% for the second.

Compared with `CCOC(=O)N1CCC(NCc2c(C(=O)O)n(Cc3ccc(C)cc3)c3ccccc23)CC1`, `Cc1c(C)n(C)c2ccc(C(=O)NC3CCN(Cc4ccccc4)CC3)cc12` is lower in “% Inhibition @ 10 uM” value: 6.59% for the first, -3.95% for the second.

Going from `C=CCc1ccc(OCCCCN2CCC(C)CC2)c(OC)c1` to `C=CCN1C(=O)S/C(=C/c2ccc(OC)c(OCC)c2)C1=O`, the “% Inhibition @ 10 uM” value rises from -6.78% to 2.6%.

Compared with `Cc1ccc(C2=NN=C(NC(=O)CSc3nnnn3-c3ccccc3)SC2)cc1`, `Cc1sc(NC(=O)CN2C(=O)c3ccccc3C2=O)nc1-c1ccccc1` is lower in “% Inhibition @ 10 uM” value: 4.3% for the first, 0.146% for the second.

Compared with `Cc1nonc1NC(=O)N1CCCCC1`, `Cc1cc(O)nc(SCC(=O)N2CCC(C(N)=O)CC2)n1` is higher in “% Inhibition @ 10 uM” value: 1.25% for the first, 5.49% for the second.

First: COc1ccc(-c2nc(CS(=O)(=O)CC(=O)NCc3ccc(Cl)cc3)c(C)o2)cc1
Second: Cc1oc(-c2ccc(Cl)cc2)nc1CSc1nc2ncccc2o1
The “% Inhibition @ 10 uM” value of the first is lower: -5.58% for the first, 2.14% for the second.

Compared with `COc1ccccc1CCNC(=O)Cc1c(C)c2cc3c(C)coc3c(C)c2oc1=O`, `Cc1cc(C)cc(Oc2coc3c(CN4CCOCC4)c(O)ccc3c2=O)c1` is lower in “% Inhibition @ 10 uM” value: 2.54% for the first, -2.87% for the second.

Going from `Cc1cc(C)nc(SCC(=O)c2ccc(F)cc2)n1` to `Cn1nc(C(F)(F)F)cc1C(=O)NCc1ccc(F)cc1`, the “% Inhibition @ 10 uM” value rises from 1.4% to 3.68%.

Going from `Nc1n[nH]c(CCCO)n1` to `NC(=O)CCCn1c(-c2nonc2N)nc2ccccc21`, the “% Inhibition @ 10 uM” value falls from 0.221% to -7.14%.

First: Cc1cccc(Cn2nc(C)c(NC(=O)c3ccco3)c2C)c1
Second: Cc1cccc(C(=O)Nc2ccccc2O)c1
The “% Inhibition @ 10 uM” value of the first is higher: -0.222% for the first, -5.32% for the second.

First: CCCSCCCn1cnc2c3cc(C)ccc3nc-2c1O
Second: Cc1ccc2c(c1)-c1c(cnn1CC(=O)NCCCN1CCOCC1)CO2
The “% Inhibition @ 10 uM” value of the first is higher: 10.6% for the first, -0.405% for the second.

Going from `Cn1c(SCC(=O)NCc2cccs2)nnc1-c1ccco1` to `CC1=C/C(=C/c2ccco2)C(=O)O1`, the “% Inhibition @ 10 uM” value rises from -0.403% to 16.1%.

First: CCOc1cc(C(=O)NC2CC2)cc(OCC)c1OCC
Second: CCOc1cc(Br)c(C(C)NC(=O)c2cccnc2)cc1OCC (stereo not shown)
The “% Inhibition @ 10 uM” value of the first is higher: 6.98% for the first, 2.17% for the second.

First: C=CCSc1nc2c(c(=O)n1-c1ccc(C)cc1)C1(CCCC1)Cc1ccccc1-2
Second: Cc1ccc(-c2c(C(=O)N3CCN(C)CC3)oc(=O)c3ccccc23)cc1
The “% Inhibition @ 10 uM” value of the first is lower: -5.23% for the first, 1.9% for the second.

Going from `COc1ccc(CN2CCN(S(=O)(=O)c3ccc4ccccc4c3)CC2)cc1Br` to `Oc1ccc2ccccc2c1C(c1ccc(Br)cc1)N1CCCCC1` (stereo not shown), the “% Inhibition @ 10 uM” value rises from 0.146% to 3.32%.

First: CCOC(=O)C1CCCN(Cc2ccccc2C(F)(F)F)C1 (stereo not shown)
Second: CCOC(=O)C1CCCN(Cc2cccc(Br)c2)C1 (stereo not shown)
The “% Inhibition @ 10 uM” value of the first is higher: -1.77% for the first, -1.92% for the second.

Compared with `O=C1CCCC2=C1C(c1ccco1)Nc1ccc3ccccc3c12` (stereo not shown), `O=C1Nc2ccc3ccccc3c2C(c2ccccc2)N1` (stereo not shown) is lower in “% Inhibition @ 10 uM” value: 3.05% for the first, -3.52% for the second.

First: CCCN1CCN(C(=O)Cn2c(C)cc3ccccc3c2=O)CC1
Second: Cc1c(CN2CCN(CCO)CC2)c(=O)n(-c2ccccc2)n1C
The “% Inhibition @ 10 uM” value of the first is higher: 1.91% for the first, -1.5% for the second.

Going from `CCOC(=O)C1=C(CNCCc2ccc(Cl)cc2)NC(=O)NC1c1ccc2c(c1)OCO2` (stereo not shown) to `CC(=O)N(Cc1ccc2c(c1)OCO2)C1CC(=O)N(c2ccccc2)C1=O` (stereo not shown), the “% Inhibition @ 10 uM” value rises from -2.19% to 3.53%.

Compared with `Cc1ccc(C(C)(C)CCN2CCCN(C)CC2)o1`, `CCN1CCCC1CNC(=O)C1CCN(c2nc3ccccc3n3cccc23)CC1` (stereo not shown) is higher in “% Inhibition @ 10 uM” value: -2.97% for the first, -1.97% for the second.

Going from `Cc1ccc(C(=O)Nc2ccccn2)cc1C` to `O=C(Nc1nc(=O)c2ccccc2s1)c1ccccc1`, the “% Inhibition @ 10 uM” value rises from -1.82% to 0.673%.

First: Cc1[nH]cnc1CN1CCCCC1CO (stereo not shown)
Second: O=C(NC1CCCCCC1)c1ccccn1
The “% Inhibition @ 10 uM” value of the first is lower: -7.17% for the first, 2.62% for the second.

First: COc1c(C(=O)Nc2ccc(C(C)=O)cc2)ccc2ccccc12
Second: CCOC(=O)c1ccc(NC(=O)c2ccc(Cl)cc2)cc1
The “% Inhibition @ 10 uM” value of the first is lower: -2.58% for the first, -0.274% for the second.

Compared with `O=C(NCCO)C(C(=O)NCCO)C1CCS(=O)(=O)C1` (stereo not shown), `CCCC(=O)NCCSCCNC(=O)CCC` is higher in “% Inhibition @ 10 uM” value: -5.33% for the first, 2.94% for the second.

Compared with `COc1ccc2c(c1)CCc1c(C(=O)Nc3cnn(Cc4ccc(F)cc4)c3)noc1-2`, `CCOc1ccc(C2C(C(=O)OC)=CN(Cc3ccc(F)cc3)C=C2C(=O)OC)cc1OC` is higher in “% Inhibition @ 10 uM” value: -5.09% for the first, 0.219% for the second.

Going from `O=S1(=O)CC(O)C(N2CCOCC2)C1` (stereo not shown) to `Cc1ccc(SC(C)C(=O)N2CCC(C(N)=O)CC2)cc1` (stereo not shown), the “% Inhibition @ 10 uM” value rises from -9.6% to -2.65%.

First: CCN(CC)CCCNC(=O)c1cc(-c2ccc(F)cc2)[nH]c1C
Second: Cc1nc2cc(-c3ccccc3)nn2c(C)c1CC(=O)NCC(C)c1ccccc1 (stereo not shown)
The “% Inhibition @ 10 uM” value of the first is higher: 1.39% for the first, -2.45% for the second.

First: SC1=NC(c2ccc(Cl)cc2)c2ccccc2C1 (stereo not shown)
Second: N#CC1=C(SCc2ccccc2)SC(c2ccc(C(=O)O)cc2)NC1=O (stereo not shown)
The “% Inhibition @ 10 uM” value of the first is lower: -3.14% for the first, 0.0289% for the second.

Compared with `C/C(=N\C1CCCCC1)c1sc2ccccc2c1O`, `COc1ccc2oc(=O)c(-c3nnc(NC4CCCCC4)s3)cc2c1` is lower in “% Inhibition @ 10 uM” value: 18.5% for the first, 2.89% for the second.

Compared with `CCC(CC)CC(NC(=O)c1ccc(C(C)(C)C)cc1)C(=O)N[C@@H](CC)C(=O)c1nc2ccccc2o1` (stereo partly shown), `O=C(O)CCC(=O)Nc1ccc(-c2nc3ccccc3o2)cc1` is higher in “% Inhibition @ 10 uM” value: -6.46% for the first, 0.878% for the second.

Compared with `CCOc1ccc(C(=O)c2cc3ccc(O)cc3oc2=O)cc1`, `Cc1oc(-c2ccc(C(=O)N3CC(C)CC(C)C3)cc2)nc1COc1ccccc1` (stereo not shown) is higher in “% Inhibition @ 10 uM” value: -4.97% for the first, 4.28% for the second.

Going from `O=C(C1=C(O)C(=O)N(CCCNCCO)C1c1ccccc1)c1ccccc1` (stereo not shown) to `Cc1ccc(CN(CC(=O)Nc2cccc(Br)c2)S(=O)(=O)c2ccccc2)cc1`, the “% Inhibition @ 10 uM” value rises from -0.92% to 1.03%.

Going from `CC1CCN(Cc2nc3c(c(=O)n(C)c(=O)n3C)n2Cc2ccccc2Cl)CC1` to `COCCCNc1nc2c(c(=O)[nH]c(=O)n2C)n1CCCc1ccccc1`, the “% Inhibition @ 10 uM” value falls from -2.29% to -5.08%.

Compared with `Cc1ccc(/C=C(/C#N)c2nc(-c3cc4c(ccc5ccccc54)oc3=O)cs2)o1`, `C=CCc1c(C)nc(-c2ccccc2)nc1Nc1ccc(OC)cc1` is lower in “% Inhibition @ 10 uM” value: 5.94% for the first, -0.712% for the second.

Going from `CCOC(=O)c1sc(C)c2c(O)nc(C)nc12` to `COC(=O)c1c(N)sc(C(=O)N(C)C)c1C`, the “% Inhibition @ 10 uM” value rises from -3.09% to 8.16%.

Compared with `COc1ccc(CNCCC(c2ccc3c(c2)OCO3)c2ccccc2OC)cc1OC` (stereo not shown), `COc1ccc(-c2cc(C(F)(F)F)nc(NCc3cccnc3)n2)cc1OC` is higher in “% Inhibition @ 10 uM” value: -9.83% for the first, 4.79% for the second.

For `CC/N=C1\S/C(=C\c2cccn2-c2cccc(C(=O)O)c2)C(=O)N1CC`, the “% Inhibition @ 10 uM” value was 1.98%.
